Target: T1, His-EngA (Escherichia coli EngA, His-tag containing version) (E. coli, UniProt P0A6P5 1-490)
T1 sequence (looked up): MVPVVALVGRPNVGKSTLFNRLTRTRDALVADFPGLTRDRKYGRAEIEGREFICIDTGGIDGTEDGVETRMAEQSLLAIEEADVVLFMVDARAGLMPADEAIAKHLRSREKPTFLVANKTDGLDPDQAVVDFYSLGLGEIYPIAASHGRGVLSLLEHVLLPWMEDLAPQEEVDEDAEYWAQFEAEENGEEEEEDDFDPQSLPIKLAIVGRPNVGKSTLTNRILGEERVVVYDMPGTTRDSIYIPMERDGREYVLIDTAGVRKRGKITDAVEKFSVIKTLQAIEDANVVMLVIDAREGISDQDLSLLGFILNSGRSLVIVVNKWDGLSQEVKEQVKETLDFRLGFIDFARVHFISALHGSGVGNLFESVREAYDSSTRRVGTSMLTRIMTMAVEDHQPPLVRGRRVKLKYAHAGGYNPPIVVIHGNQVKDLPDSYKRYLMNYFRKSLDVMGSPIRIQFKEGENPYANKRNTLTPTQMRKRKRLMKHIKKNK
Experiment: cryo-EM structure

B1: ribosomal protein L1 (in the 50S subunit) (natural protein)
chain: not shown
binding result: binds
